Experiment in all cases: Primary Screen for Target Class Profiling of Small Molecule Inhibitors of Methyltransferases
Experiment [1] deals with Glycine N-methyltransferase (Homo sapiens) (UniProt Q14749). Particulars: purified enzyme, MTase-Glo SAH luminescence; measured here: GNMT inhibition; at 40 µM; stronger effect = lower value. The procedure, abridged:
(§1)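 Each enzyme was assayed with SAM and its substrate. SAH formation detected by MTase-Glo luminescence; single-point 40 uM screen[…].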

For experiment [2], the target named is Guanidinoacetate N-methyltransferase (Homo sapiens) (UniProt Q14353). The following applies: purified enzyme, MTase-Glo SAH luminescence; measured here: GAMT inhibition; at 40 µM; stronger effect = lower value. A digest of the protocol: as §1
For experiment [3], the target named is Histamine N-methyltransferase (Homo sapiens) (UniProt P50135). The following applies: purified enzyme, MTase-Glo SAH luminescence; measured here: HNMT inhibition; at 40 µM; stronger effect = lower value. The procedure, abridged: as §1
In experiment [4] the target is Nicotinamide N-methyltransferase (Homo sapiens) (UniProt P40261). The following applies: purified enzyme, MTase-Glo SAH luminescence; measured here: NNMT inhibition; at 40 µM; stronger effect = lower value. The procedure, abridged:
as §1

For experiment [5], the target named is Phenylethanolamine N-methyltransferase (Homo sapiens) (UniProt P11086). Particulars: purified enzyme, MTase-Glo SAH luminescence; measured here: PNMT inhibition; at 40 µM; stronger effect = lower value. A digest of the protocol:
as §1

Each structure is given as a SMILES string. The list shows a part of the results. Shown are side measurements of this screen, not its main read-out; they come without a call.
% is scaled to controls: 0 for no effect and ±100 for the full control effect.

Turning to `CCNC(=O)[C@H]1O[C@H](n2cnc3c(NCC(c4ccccc4)c4ccccc4)nc(C(=O)NCCNC(=O)NC4CCN(c5ccccn5)CC4)nc32)[C@H](O)[C@@H]1O`, the activity change, negative = inhibition in experiment [1] was -3.07%; in experiment [2] it was 20.5%; in experiment [3] it was -17.5%; in experiment [4], -6.07%; in experiment [5], 9.04%.

Regarding `C=CCN1CCN(C(=O)C2N(c3ccc(OC)cc3)C(=O)C23CCCCC3)CC1` (stereo not given), the activity change, negative = inhibition in experiment [1] was -2.66%; in experiment [2], -0.092%; in experiment [3], 0.464%; in experiment [4], -0.51%; in experiment [5], 14.5%.

Consider `Cc1ccc(CNC(=O)CSc2nnc3n(Cc4ccccc4)c(=O)c4ccccc4n23)cc1`, for which the activity change, negative = inhibition in experiment [1] is -1.27%; in experiment [2], -0.982%; in experiment [3] it was 5.68%; in experiment [4], -10.8%; in experiment [5], -4.15%.

As to `Cc1ccc(CNC(=O)C(C)n2ccc3cc(S(=O)(=O)N4CCCC4)ccc32)cc1` (stereo not given), the activity change, negative = inhibition in experiment [1] was 2.24%; in experiment [2], 1.97%; in experiment [3], -1.64%; in experiment [4], -4.4%; in experiment [5], -2.71%.

For `CC(C)CNC(=O)c1ccc2c(=O)n(C(C)C)c3nn(CC(=O)Nc4ccccc4F)c(=O)n3c2c1`, the activity change, negative = inhibition is -1.28% in experiment [1]; 3.9% in experiment [2]; -1.31% in experiment [3]; -2.91% in experiment [4]; 0.69% in experiment [5].

For `CCCn1c(=O)c2cc(F)ccc2n2c(SCC(=O)Nc3cccc(OC)c3)nnc12`, the activity change, negative = inhibition in experiment [1] was -5.9%; in experiment [2], 5.21%; in experiment [3] it was 2.81%; in experiment [4] it was 0.254%; in experiment [5] it was 0.756%.

Take `CC(C)CCNC(=O)C1(C)Cn2c(cc3ccccc32)C(=O)N1Cc1ccccc1F` (stereo not given): the activity change, negative = inhibition is 3.27% in experiment [1]; 0% in experiment [2]; 2.31% in experiment [3]; 4.34% in experiment [4]; -1.23% in experiment [5].

`Cn1c(=O)n(C)c2cc(S(=O)(=O)N(Cc3ccco3)C(=O)c3ccco3)ccc21`: the activity change, negative = inhibition in experiment [1] is 0.856%; in experiment [2] it was 4.3%; in experiment [3], 4.95%; in experiment [4], -0.254%; in experiment [5], 0.446%.

Regarding `Cc1ccc(Cn2c(=O)c3ccccc3n3c(SCC(=O)NC4CCCCC4)nnc23)cc1`, the activity change, negative = inhibition in experiment [1] is 3.56%; in experiment [2] it was 0%; in experiment [3], 9.27%; in experiment [4], -0.121%; in experiment [5], 4.03%.

Regarding `O=C(Nc1ccc(F)c(Cl)c1)N1Cc2c(sc3c2CCCC3)-n2cccc2C1c1ccccc1` (stereo not given), the activity change, negative = inhibition in experiment [1] is 3.48%; in experiment [2], 0%; in experiment [3] it was 0.511%; in experiment [4], 3%; in experiment [5], 8.19%.

Regarding `CN(C)C[C@@H]1CN(C)C[C@H]1NS(=O)(=O)c1ccccc1F`, the activity change, negative = inhibition in experiment [1] was -1.21%; in experiment [2], -3.12%; in experiment [3] it was -0.332%; in experiment [4], -6.24%; in experiment [5], 11%.

As for `Cc1cc2[nH]c(=O)[nH]c2cc1S(=O)(=O)N1CCOCC1`, the activity change, negative = inhibition was -0.439% in experiment [1]; 0% in experiment [2]; 0.283% in experiment [3]; 0.867% in experiment [4]; -4.58% in experiment [5].

In the case of `OCC1O[C@H](O)C(Cl)C(O)C1O` (stereo not given in full), the activity change, negative = inhibition in experiment [1] was 6.28%; in experiment [2], 12%; in experiment [3], 11.7%; in experiment [4] it was -4.97%; in experiment [5] it was 3.09%.

Take `N#Cc1ccnc(N2C(=O)CC[C@H]2C(=O)N(c2cncc(F)c2)[C@H](C(=O)NC2CC(F)(F)C2)c2ccccc2Cl)c1`: the activity change, negative = inhibition in experiment [1] is 3.11%; in experiment [2], 5.48%; in experiment [3], 3.96%; in experiment [4] it was -13.4%; in experiment [5], -5.57%.

`CCc1noc(-c2ccn3c(CNC(=O)Cc4c[nH]c5ccccc45)nnc3c2)n1`: the activity change, negative = inhibition in experiment [1] is -3.17%; in experiment [2], -7.18%; in experiment [3], -1.41%; in experiment [4] it was -5.68%; in experiment [5], 1.65%.

On to `C=CC(=O)Nc1ccc2ncnc(Nc3cccc(Br)c3)c2c1`, for which the activity change, negative = inhibition in experiment [1] was -56.2%; in experiment [2], -46.6%; in experiment [3] it was -56.3%; in experiment [4], -48.4%; in experiment [5] it was -58.2%.

`CC(C)(C)n1nnnc1C1CC2(CCOCC2)C(=O)N1Cc1cccs1` (stereo not given): the activity change, negative = inhibition in experiment [1] was -5.24%; in experiment [2], -8.85%; in experiment [3], -2.22%; in experiment [4], -13.3%; in experiment [5], -5.78%.

Consider `Cc1cccc(NC(=O)Cn2c(=O)oc3cc(S(=O)(=O)NC4CCCC4)ccc32)c1`, for which the activity change, negative = inhibition in experiment [1] is 0.203%; in experiment [2], 2.06%; in experiment [3], 10.4%; in experiment [4] it was 10.3%; in experiment [5] it was -7.29%.

As for `CCC(C)NC(=O)c1ccc2c(=O)n(C)c3nn(CC(=O)c4ccccc4)c(=O)n3c2c1` (stereo not given), the activity change, negative = inhibition is -0.835% in experiment [1]; 11% in experiment [2]; 4.72% in experiment [3]; -3.82% in experiment [4]; 4.88% in experiment [5].

As to `Cc1cc(C)cc(N2C(=O)c3cc4occc4n3CC2(C)C(=O)NC2CCCC(C)C2C)c1` (stereo not given), the activity change, negative = inhibition in experiment [1] is -12.6%; in experiment [2], -7.62%; in experiment [3], -5.87%; in experiment [4] it was -15.7%; in experiment [5] it was -11.7%.

For `COc1ccccc1N1CCN(S(=O)(=O)c2cccc3c2C(=O)c2ccccc2C3=O)CC1`, the activity change, negative = inhibition is -7.99% in experiment [1]; -0.685% in experiment [2]; -7.33% in experiment [3]; -4.93% in experiment [4]; -47% in experiment [5].

Take `COc1ccc(N2C(=O)CSc3c(c4ccccc4n3C)C2C(=O)NCCC(C)C)cc1` (stereo not given): the activity change, negative = inhibition was 3.86% in experiment [1]; 4.8% in experiment [2]; -6.06% in experiment [3]; -5.22% in experiment [4]; -1.83% in experiment [5].

As to `CC1CCN(S(=O)(=O)c2ccc3c(ccn3CC(=O)NCCc3ccco3)c2)CC1`, the activity change, negative = inhibition in experiment [1] worked out at 3.15%; in experiment [2], 2.32%; in experiment [3], 0.849%; in experiment [4], 1.59%; in experiment [5], 0.392%.

Regarding `CC(C)Cn1c(=O)c2ccc(C(=O)NC(C)C)cc2n2c(SCC(=O)NCc3ccccc3)nnc12`, the activity change, negative = inhibition was 1.1% in experiment [1]; 4.09% in experiment [2]; -0.703% in experiment [3]; -1.82% in experiment [4]; -0.646% in experiment [5].

Turning to `CCOC(=O)c1cc2n(n1)CC(C)(C(=O)NC1CCCCC1)N(c1cccc(C)c1C)C2=O` (stereo not given), the activity change, negative = inhibition was 5.8% in experiment [1]; 0% in experiment [2]; -1.76% in experiment [3]; 5.16% in experiment [4]; 4.84% in experiment [5].

Regarding `CCC(C)NC(=O)c1ccc2c(=O)n(C)c3nn(CC(=O)c4ccc(OC)cc4)c(=O)n3c2c1` (stereo not given), the activity change, negative = inhibition was -1.65% in experiment [1]; 5.24% in experiment [2]; 1.44% in experiment [3]; -3.24% in experiment [4]; 1.38% in experiment [5].

On to `CC1CCC(NC(=O)C2(C)Cn3c(ccc3-c3ccco3)C(=O)N2Cc2ccccc2Cl)CC1` (stereo not given), for which the activity change, negative = inhibition in experiment [1] is 1.03%; in experiment [2] it was 3.71%; in experiment [3] it was 4.33%; in experiment [4], -0.043%; in experiment [5], -0.087%.

As to `Cc1ncccc1C(=O)N1CC[C@@H]2COCCN(Cc3ccncc3)[C@@H]2C1`, the activity change, negative = inhibition in experiment [1] was -6.57%; in experiment [2], -5.23%; in experiment [3], -1.59%; in experiment [4] it was -13.7%; in experiment [5], -1.9%.

Turning to `Cc1cc2c(cc1S(=O)(=O)Nc1cccc(Cl)c1C)n(C)c(=O)n2C`, the activity change, negative = inhibition was 6.11% in experiment [1]; 0% in experiment [2]; 3.82% in experiment [3]; -3.06% in experiment [4]; -2.33% in experiment [5].

In the case of `COc1ccc(Nc2ccnc(N3CCCC(C(=O)NCc4ccc(F)cc4)C3)n2)cc1` (stereo not given), the activity change, negative = inhibition in experiment [1] is -11.1%; in experiment [2], -10.7%; in experiment [3] it was -9.77%; in experiment [4], -22.2%; in experiment [5], -11.9%.

Turning to `CCOc1ccc(CN2C(=O)c3cc(C4CC4)nn3CC2(C)C(=O)NC2CCCCCC2)cc1` (stereo not given), the activity change, negative = inhibition was -1.1% in experiment [1]; 0% in experiment [2]; 3.88% in experiment [3]; -2.37% in experiment [4]; -0.297% in experiment [5].

Regarding `CCCCN1C(=O)c2cc(C(=O)Nc3ccc(F)cc3)nn2CC1(C)C(=O)NC1CCCC1` (stereo not given), the activity change, negative = inhibition is 8.47% in experiment [1]; 2.21% in experiment [2]; -9.56% in experiment [3]; 5.74% in experiment [4]; 6.47% in experiment [5].

For the molecule `COc1cccc(CN2C(=O)c3cc(C4CC4)nn3CC2(C)C(=O)NC2CCCCCC2)c1OC` (stereo not given), the activity change, negative = inhibition in experiment [1] was -0.736%; in experiment [2], 0.178%; in experiment [3], 4.57%; in experiment [4], -9.19%; in experiment [5] it was -0.085%.

For `O=C(Cn1nc2n(Cc3ccccc3)c(=O)c3ccccc3n2c1=O)NCc1ccc(Cl)cc1`, the activity change, negative = inhibition in experiment [1] was determined as 3.73%; in experiment [2], 0%; in experiment [3] it was 4.79%; in experiment [4], 5.33%; in experiment [5] it was 2.1%.

As to `N[C@H](C(=O)O)c1cc(O)cc(O)c1`, the activity change, negative = inhibition in experiment [1] was 4.8%; in experiment [2], 5.55%; in experiment [3], 10.6%; in experiment [4], -4.67%; in experiment [5], 2.94%.

As to `O=C(Nc1ccc(Cl)nc1)c1ccc2ccnn2c1`, the activity change, negative = inhibition in experiment [1] was -25.1%; in experiment [2], 0.147%; in experiment [3] it was 0.743%; in experiment [4], -7.76%; in experiment [5] it was -3.21%.

As to `CN1C[C@H](O)C[C@H]1c1nnc2n1CCN(S(=O)(=O)c1ccccc1)CC2`, the activity change, negative = inhibition in experiment [1] worked out at 0.608%; in experiment [2], 3.61%; in experiment [3], 1.45%; in experiment [4], 0.484%; in experiment [5] it was 12.3%.

Regarding `c1ccc(C(NCc2cccnc2)(c2ccccc2)c2ccccc2)cc1`, the activity change, negative = inhibition is 8.93% in experiment [1]; 14.3% in experiment [2]; 11.5% in experiment [3]; -8.62% in experiment [4]; 0.292% in experiment [5].
